# The list shows a part of the results.
# System: PF3D7_0420300 AP2 domain 1 (GST-tagged)
# Assay: gcPBM binding intensity (ln(normalized median fluorescence intensity)); higher = stronger DNA binding
# Summary of the method: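 Using an Agilent 4 × 180k array, primer-extended double-stranded 36-bp intergenic genomic probes and negative controls were exposed for 1 h to GST-fused P. falciparum DNA-binding domains expressed in E. coli. Binding was carried out in 1× PBS with 1% milk, 0.2 mg/ml BSA, 0.5% salmon testes DNA and 0.03% Triton X-100, and protein was detected with Alexa488 anti-GST antibody and a 488 nm scan. Binding intensity is the highest Masliner-normalised natural-log median intensity across replicate spots of either probe orientation.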
row,Sequence,gcPBM binding intensity (ln)
1,TTAATATTAATATATTGTACATATATGCACATATTT [XGTACX_site6569],9.19
2,AACGTTCATATTTCCACACACAAAAAATAAATATAA [CACACA_site3344],9.68
3,AATATTATAATATAAACACACAAAATTCAATTATAT [CACACA_site3789],9.69
4,AAAAATAAAGGGCGAAAAAAAAAAAAAAAAAAAAAA [GTGCAC_negctrl_site671],8.38
5,AAAATATATTATATATGTACATATTACGTTTTAATT [XGTACX_site2518],9.22
6,CAATTTTAAGTAATCAATTTTTTTAAAAAACACAAA [CACACA_negctrl_site961],8.97
7,TTAAAACCAAAACACAGTACATATATATATATATAT [XGTACX_site5668],9.4
8,TATATATATATGTATACACACATATGTATGTTATGT [CACACA_site4053],9.6
9,TTTGTTAATTATAAATGTACATATTATATATATATA [XGTACX_site8870],9.18
10,GCATAATATACTCTTACACACCATTTCTATATACAT [CACACA_site6799],9.86
11,TTGTTTTTAGTTTATACACACCATATTAATATAATG [CACACA_site7452],9.47
12,ATTTGGCATGGACACACACACACACCGACAGACATA [CACACA_site4491],10.2
13,TTATATTATGGACACACACACAAAAAAAAAAAAAAA [CACACA_site7744],9.61
14,ATATATATATAAAGTTGTACATTTTTTATTTTTTCA [XGTACX_site7847],9.12
15,AAATTAATTAAATATACACACATATATAAATATATA [CACACA_site391],9.38
16,TTTTTTTTTTAAAAAACACACACCTAAACAAGATAT [CACACA_site875],9.59
17,ATATATATATATATTTGTACATATATATAATTTTTC [XGTACX_site7460],9.05
18,TATAATTGTCTTCACACACACATATATATATATATA [CACACA_site2743],9.84
19,AAAATAAAAAAAAAAGGTACACAAAAAGATGGACTG [XGTACX_site2650],9.47
20,ATGTTGTCAAAAAAATGTACTTACATAATATTTTCC [XGTACX_site1732],9.12
21,CGCATACACCAACACACACACACATATATATATATA [CACACA_site635],10.2
22,TATAAATACTTATATGTACACACATATAGATATATA [CACACA_site8819],9.36

row,Sequence,gcPBM binding intensity (ln)
1,TAGATCTTATTTACAAGTACATATATACGATTCATT [XGTACX_site7578],9.15
2,AGAAGTCTGTAATGATGTACTGGAAAAATATAAATA [XGTACX_site8148],8.97
3,ATCTAATATATATTCTGTACGTAATTAAAACCACAA [XGTACX_site3152],9.29
4,ATTAATAATATTCCTTGTACATGATTTTTCTAAATA [XGTACX_site7099],9.07
5,TATAAATATAAATACACACACACATCAATACAGATA [CACACA_site5850],10.1
6,TGTGTTAATAGAAAAAGTACATATACATATATATAT [XGTACX_site4951],9.25
7,TGCACAGACGGACACACACACAACTAAAAAATAATG [CACACA_site5424],9.98
8,AATGAATTAATAGCTACACACGGTAACATAATAACT [CACACA_site851],9.73
9,TCTTTTGAACAAATTTGTACGTATATAAAAATATTT [XGTACX_site6547],9.07
10,TATAATAATGCCTTTACATGCAATAATAAAGAAATA [TGCATGCA_site631],8.99
11,TACATAAAAATATCACGTACATATAATCATATACTA [XGTACX_site3505],9.19
12,ATATTTCATCTAGCTACACACATATAACAAATTACT [CACACA_site7843],9.73
13,TTCTTTTTCCAATTTGCACACCACAAAATTATATAT [CACACA_site2909],9.69
14,ACCTTTGATATATACACACACATAAAAAAAATATAT [CACACA_site6952],9.93
15,TCAAATTATATGAGTGGTACACATGTAATATTTTTA [XGTACX_site6518],9.06
16,AAAAAACGACCTTACGCACACATTATTCTAGTCTAT [CACACA_site2349],9.58
17,AAAAAAATATATATTACACACATATATACATATATA [CACACA_site3125],9.55
18,ATATATATATATATATGTACTTATTAAGATTAAAAA [XGTACX_site61],9.07
19,ATATTTTGTATAATCACACACACTATTATTAAATAG [CACACA_site2612],9.64
20,TTACATTTTTTATGTTTTTTTATATTGCAAAAAAAT [CACACA_negctrl_site1050],8.88
21,TTAAATATAAAAAGTAGTACATTTATATTTACCATA [XGTACX_site2962],8.96
22,AAAAAGTAGTAAAACAGTACAGTATTTATGCCTATT [XGTACX_site6434],9.47

row,Sequence,gcPBM binding intensity (ln)
1,AAAAAAAAAAAAAGTACACACTTTTGCGTACATGTA [CACACA_site7449],9.26
2,AATATATTTTTCTACCGTACATAATAAAATATATAT [XGTACX_site1777],9.2
3,TATTTATTTATTTATTGTACATAAGTATATATTATA [XGTACX_site6566],9.18
4,GAACCACTAAAATGAGCATGCTCATATTTACATATA [TGCATGCA_site1033],9.23
5,ATATATATATATATATGTACTTATATATAATATAGA [XGTACX_site3488],9.04
6,GTACTCTTCTCCAGACTGCACTATACGACTCGTACA [GTGCAC_site9770],9.22
7,ATTACATACACGCGCACACACAAAAAAAAAAAAAAA [CACACA_site1334],9.57
8,TGGTATGTTTTACAAAGTACCCATCGATTCTTATGT [XGTACX_site2822],9.27
9,TATATTTTATAAAAAAGTACACATGAAAATGTATTT [XGTACX_site5889],9.11
10,ATATTTAAAGAATAAGTGCAAAATGTAATTAATTTT [GTGCAC_site9901],9.28
11,TATTTATTACTATGTAAACACACATGCAATATATGT [CACACA_site8288],9.31
12,TGTAGTCTGGAGAAACGTACACAGTATCTGGTAACA [XGTACX_site4938],9.1
13,AAAGGGGATATATGAACACACAAAAAAAAAATATAT [CACACA_site2896],9.72
14,TTTTTTCCTTTTAATTGTACACAGATATAATATATT [XGTACX_site2230],9.33
15,AAATTTTATTATAGCAGTACAATATAATATTATTAA [XGTACX_site1971],9.13
16,AAATATTTTTTTTCTACACACATACAAATATAGATT [CACACA_site7164],9.48
17,ATGCCCCATATAAACACACAAATAAAAAGAATATAC [CACACA_site7292],9.72
18,AAATAAGAGCGTAGCACACACGCATTTTATAAATGT [CACACA_site741],9.44
19,TTTTTTTTTTTTTTTGCATGTTGTTTAATGTATTGT [TGCATGCA_site772],9.11
20,TATCATTTTATTATTCTACACACTTATCTATAATTA [CACACA_site7894],9.6
21,TTTTACAAAATAAAAATATAGAATACGGTAAATTAT [GTGCAC_negctrl_site40],9.25
22,TAAAAATGTGGACACACACACATATTTATATTTAAT [CACACA_site6827],9.62

row,Sequence,gcPBM binding intensity (ln)
1,TGTTGATGATATTACACACCCAATGAGAAAAGGAAT [CACACA_site2072],9.51
2,AAAAATTTAAGTGGGGGTACATTTTTTTAACACCTT [XGTACX_site1093],9.56
3,AACAAACACGGACACACACACACACTAGAATGATTA [CACACA_site5364],10.2
4,TAATATATTAACATGGGTACATATTATTTCATGTGT [XGTACX_site5985],9.37
5,ATATTTAAATGTAATACATGCAAATTTGAACATTTT [TGCATGCA_site736],9.23
6,AAAAAAAAAAAAATCACACATATGTATTTATATATA [CACACA_site5790],9.18
7,ATATAATTAAAATGCTCACACACATAAAAAAAAATT [CACACA_site2148],9.7
8,TACATAATACATATAACACACACAATTATACATAAA [CACACA_site9060],10
9,CACATATATATGTGTGCATGTTGTATTATATATTTA [TGCATGCA_site632],9.72
10,ATAATTACAAAATAAACACACATATAGATTTATATG [CACACA_site6343],9.6
11,ATTTTATTTTTTAAAGGTACAGTTACAGCTTATATA [XGTACX_site7513],9.16
12,GTACATATATACATTACACACGGTTTGATTTAAAAA [CACACA_site3379],9.45
13,TCTTTTAAAAAAAAAGGAGGAACATAAAAAGTAGAA [XGTACX_negctrl_site272],9.35
14,TGTTTCCAAAAAAAAAAAAAAAAAAAAAAAAAAAAA [CACACA_negctrl_site358],8.58
15,AAAAAAACATGAAACACACACAAATATTTATTTATA [CACACA_site6967],9.83
16,TTTTGTTTATTATGATTCAAAATGATTTTATCTTTG [TGCATGCA_negctrl_site425],8.99
17,TATTATATATATAAATGTACTTATTTTAATTCCCCT [XGTACX_site8638],9.16
18,TTTAATTTTTTTAATTCACACATTATTCCATCCTTT [CACACA_site5480],9.36
19,AATAAATAAGCAACATGTACATACAAATATATACAT [XGTACX_site8529],9.64
20,ATTTTCCATTGTGCTACACACAACGGTTCGCAATAA [CACACA_site2974],9.64
21,ATCTAATAAAAATACACACACATATGATTTGTGAAT [CACACA_site1867],9.68
22,TAAAAAAAATAGTCAAGTACATAAGAAGGGAAGAAA [XGTACX_site8733],9.46

# From the supplement of paper PMC11417369
